For 90 compounds, survival results are on record in PubChem BioAssay AID463173 (ICCB-Longwood Screening Facility, Harvard Medical School, 2010).

In all, about 52,000 compounds went through this assay and about 1,700 (3.3%) were called active. No stated cut-off is given here; in the data, active means survival mostly below about 52% (no sharp cut-off); inactive means mostly above about 56%. This is one part of the list.

The experiment has as its system Wild type. Put plainly: S. aureus survival, RN4220 and DeltatarO strains – OD600, teichoic acid synthesis inhibitors, primary screen (AID 463173). The following applies: S. aureus RN4220 wild type/DeltatarO growth, OD600, 18 h, stronger effect = lower value, screened at 18.75 µg/mL (by protocol).
As for `Cc1ccc2ncc(C(=O)N3CCN(c4ccccc4F)CC3)c(=O)n2c1`, the survival is inactive: 91%.
The figure for `COc1ccc(CCNC(=O)c2cnn(-c3ccc(F)cc3)c2C2CCN(C(=O)OC(C)(C)C)CC2)c(OC)c1` is inactive: 76%; for `CCc1ccccc1NC(=O)N1CCc2c([nH]c3ccccc23)C1c1ccc(C)cc1` (stereo not given) it is inactive: 86%.
`Cc1ccc(S(=O)(=O)N(CC(=O)NCCc2ccc(Cl)cc2)c2ccccc2C)cc1`: the survival is inactive: 59%.
Regarding `CCc1ccc(OCC(=O)N(Cc2ccc(C)o2)C2CCS(=O)(=O)C2)cc1` (stereo not given), the survival was inactive: 116%.
With `Cc1coc2c(C)c3oc(=O)c(CC(=O)NCCc4ccc(Cl)cc4)c(C)c3cc12`, the survival was inactive: 99%.
The value for `Cc1ccnc(NC(=O)Cc2ccc(F)cc2)n1` was inactive: 112%; that for `Cc1cc(NC(=O)OC2CCCC2)ccc1NC(=O)OC1CCCCC1` was inactive: 126%; that for `Cc1c(NC(=O)c2cc(=O)c3ccccc3o2)c(=O)n(-c2ccccc2)n1C` was inactive: 84%.
The value for `O=C(COc1ccccc1F)Nc1nnc(SCc2cc(=O)c3ccccc3[nH]2)s1` was inactive: 71%; that for `Cc1cccc(CSc2nc(-c3cccs3)ccc2C#N)c1` was inactive: 17%; that for `COc1ccc(NC(=O)C2CCCN(S(=O)(=O)c3ccc4c(c3)oc(=O)n4C)C2)c(OC)c1` (stereo not given) was inactive: 125%.
The value for `C=CCc1c(C)nc2nc(SCC(=O)Nc3ccc(C)c(C)c3)nn2c1C` was inactive: 78%; that for `COc1cccc(N2CCN(C(=O)c3cccn3-c3nnc(N4CCCC4)s3)CC2)c1` was inactive: 90%; that for `O=C1CCCC/C1=N\Nc1ccc(N2CCCCC2)cc1` was inactive: 109%.
For the compound `COCCCNC(=O)c1ccc(-n2c(-c3ccccc3)cc3c2CCC(C)C3)cc1` (stereo not given), the survival was inactive: 116%.
The figure for `CCCCOc1ccc(S(=O)(=O)Nc2ccc(-c3ccc(N4CCC(C)CC4)nn3)cc2)cc1` is inactive: 75%; for `COc1ccc(S(=O)(=O)Nc2ccc(-c3cn4ccsc4n3)cc2)cc1C` it is inactive: 133%; for `COc1ccc(CCN2C(=O)c3oc4cc(C)cc(C)c4c(=O)c3C2c2ccccc2F)cc1OC` (stereo not given) it is inactive: 88%.
The figure for `COc1cccc(-c2nnc(SCC(=O)NC3CCCCC3)o2)c1` is inactive: 73%; for `Cc1cccc(NC2CC(=O)N(c3cccc(Cl)c3)C2=O)c1` (stereo not given) it is inactive: 107%.
The figure for `CCCn1c(=O)c2sccc2n2c(CCCC(=O)Nc3ccc(Oc4ccc(Cl)cc4)cc3)nnc12` is inactive: 66%; for `Cc1ccc(NC(=O)c2ccc(CN3C(=O)CCn4nc(C)cc43)cc2)c(Cl)c1` it is inactive: 85%; for `CC(=O)c1ccc(NS(=O)(=O)c2ccc(-c3cc(C)no3)s2)cc1` it is inactive: 124%.
As to `CCOc1ccc(CCNC(=O)C2CCN(C(=O)c3cc4sccc4n3CC)CC2)cc1OCC`, the survival is inactive: 103%.
As for `Cc1cccc(NC(=O)Cn2c(=O)ccc3cc(S(=O)(=O)N4CCCC4)ccc32)c1C`, the survival was inactive: 79%.
The value for `CC(=O)c1ccc(NC(=O)C2CCC(CNS(=O)(=O)c3cccs3)CC2)cc1` (stereo not given) was inactive: 60%.
The value for `COc1cccc(Cc2nc3ccccc3nc2SCC(=O)NCc2ccc(C)cc2)c1` was inactive: 88%; that for `COc1ccc(CCNC(=O)c2ccc3c(c2)nc2n3CCC(C)C2)cc1OC` (stereo not given) was inactive: 72%.
As for `CCOC(=O)c1noc2nc(C)n(Cc3cccc(C#N)c3)c(=O)c12`, the survival was inactive: 76%.
Turning to `CCOc1ccc(NC(=O)N2CCN(Cc3cc(=O)n4nc(-c5ccc(OC)cc5)sc4n3)CC2)cc1`, the survival is inactive: 72%.
The value for `O=C(NCc1ccc(F)cc1)c1ccc2c(c1)nnn2C1CCCC1` was inactive: 159%.
The value for `COc1ccc(N2C(=O)CS(=O)(=O)C23C(=O)N(Cc2ccc(C)cc2)c2ccccc23)cc1Cl` (stereo not given) was inactive: 69%.
The figure for `CCOC(=O)c1[nH]c(C)c(CCC(=O)NCc2ccc(OC)cc2)c1C` is inactive: 71%.
For the compound `Cc1c(NC(=O)c2cc(-c3ccc(Cl)cc3)on2)c(=O)n(-c2ccccc2)n1C`, the survival is inactive: 135%.
The figure for `O=C(OCC(=O)N1CCc2ccccc21)c1ccccc1` is inactive: 98%; for `Cc1ccccc1-c1nnc(SCC(=O)N(C)C2CCCCC2)o1` it is inactive: 65%.
With `CCNC(=O)c1ccc(CSc2nc3ccncc3n2Cc2ccc(F)cc2)cc1`, the survival is inactive: 82%.
For `O=C(CN1C(=O)CSC1=O)Nc1cccc(Cl)c1`, the survival is inactive: 107%.
The figure for `CCn1c(C(=O)NCc2cc(Br)ccc2OC)cc2oc3ccccc3c21` is inactive: 78%.
The value for `CCN(C(=O)Cn1cnc2onc(-c3ccc(F)cc3)c2c1=O)c1cc(C)ccc1C` was inactive: 73%; that for `COc1cccc(C(=O)NC(=S)NCc2ccco2)c1` was inactive: 108%; that for `Cc1ccc(NC(=O)N2CCN(c3cc(-c4noc(C)n4)ccc3C)CC2)c(C)c1` was inactive: 72%.
The figure for `Cc1cccc(CCNC(=O)CN(c2ccc(C(C)C)cc2)S(=O)(=O)c2c(C)nn(C)c2C)c1` is inactive: 87%; for `CC1=CC(C)(C)N(C(=O)Cc2ccccc2)c2ccccc21` it is inactive: 126%; for `COc1ccc(CNc2nc3ccccc3c3nc(-c4ccccc4)nn23)cc1` it is inactive: 33%.
With `Cc1ccc(OCC(=O)Nc2nc(-c3ccc(Br)cc3)ns2)cc1C`, the survival is inactive: 119%.
For `CC(=O)c1ccc(NC(=O)c2nc(-c3ccc(C)cc3)n3c2CCCCC3)cc1`, the survival is inactive: 63%.
The figure for `Cc1ccccc1OCC(=O)Nc1ccc2nc(SCc3ccccc3)sc2c1` is inactive: 91%; for `O=C(O)c1ccc(NC(=S)N2CCCCC2)cc1` it is inactive: 107%.
The figure for `COc1ccc(OCC(=O)NC2CC(=O)N(c3ccc4c(c3)OCCO4)C2)cc1` (stereo not given) is inactive: 80%; for `COc1ccc(-c2ccc(NS(=O)(=O)c3cccc(C)c3)cc2)nn1` it is inactive: 70%.
Consider `COC(=O)C(C)n1cnc2sc3c(c2c1=O)CCCC3` (stereo not given), for which the survival is inactive: 102%.
The figure for `COc1ccc(CCNC(=O)C2CCN(c3nc4ccccc4nc3C(F)(F)F)CC2)c(OC)c1` is inactive: 65%; for `Cc1ccc(C)c(CN2C(=O)C3(c4ccccc42)N(c2ccc(Cl)cc2)C(=O)CS3(=O)=O)c1` (stereo not given) it is inactive: 71%; for `CCc1ccc(NS(=O)(=O)c2c(C)nc3sc(CC)nn3c2=O)cc1` it is inactive: 70%.
Turning to `COc1ccc(CCNc2nc3c(-c4cccc(F)c4)nnn3c3ccccc23)cc1OC`, the survival was inactive: 95%.
The value for `Cc1cccc(NC(=O)CSc2nc(-c3ccccc3Cl)nc3c2Cc2c(CO)cnc(C)c2O3)c1C` was inactive: 109%; that for `CC1CCN(c2nc3c(S(=O)(=O)c4ccc(Cl)cc4)nnn3c3ccsc23)CC1` was inactive: 113%.
The value for `COc1ccc(-c2cc(C)no2)cc1S(=O)(=O)N1CCN(c2ccccc2F)CC1` was inactive: 135%; that for `CC(=O)N1c2ccccc2CC1C(=O)NCc1cccc(Cl)c1` (stereo not given) was inactive: 72%; that for `CCOc1cccc(C2CC(=O)Nc3cc4c(cc32)OCCO4)c1` (stereo not given) was inactive: 77%.
For `CN1C(=O)C(Cc2ccccc2)NC1=S` (stereo not given), the survival is inactive: 112%.
Regarding `CCc1ccccc1NC(=O)c1ccc(CN2C(=O)CCn3nc(C)cc32)cc1`, the survival is inactive: 92%.
As to `COCCNC(=O)C1CCN(c2nc3ccccc3nc2C(F)(F)F)CC1`, the survival is inactive: 79%.
The value for `Cc1ccccc1NC(=O)CSc1cn(CC(=O)N(C(C)C)C(C)C)c2ccccc12` was inactive: 82%; that for `COc1cc2c(cc1OC)C(COc1ccc3c(C)cc(=O)oc3c1)N(C(=O)c1ccccc1F)CC2` (stereo not given) was inactive: 64%; that for `COc1cc2c(cc1OC)n(Cc1ccc([N+](=O)[O-])cc1)c(=O)n1nc(-c3ccccc3)nc21` was inactive: 135%.
The figure for `O=C(NCc1ccccc1Cl)C1CCCN(C(=O)c2cnn(-c3ccc(F)cc3)c2-n2cccc2)C1` (stereo not given) is inactive: 93%; for `CCOC(=O)c1c(C)oc2ccc(OCC(N)=O)cc12` it is inactive: 108%; for `Cc1cccc(N2CCN(C(=O)c3cnc4c(C)cccn4c3=O)CC2C)c1` (stereo not given) it is active: 0%.
The value for `O=C(COc1cccc(Cl)c1)N1CCC(c2nc3ccccc3o2)CC1` was inactive: 72%; that for `CCOc1ccc(NC(=O)CSc2nc3c([nH]c4ccccc43)c(=O)n2-c2cc(C)cc(C)c2)cc1` was inactive: 72%; that for `COC(=O)c1cc2c(ccn2-c2ccc(F)cc2)n1C(C)C` was inactive: 107%.
As for `CC(C)c1ccc(NC(=O)N2CCN(c3ccc(Cl)c(Cl)c3)CC2)cc1`, the survival is inactive: 101%.
The figure for `Cc1nc2c(-c3ccccc3)c(C)nn2c(C)c1CCC(=O)NCCc1ccccc1` is inactive: 73%; for `Cc1ccc(N2CCN(C(=O)c3c(C)oc4ncnc(N5CCCCC5)c34)CC2)c(C)c1` it is inactive: 73%; for `O=C(NC1CC(=O)N(c2ccc(Cl)cc2)C1)C1CCCC1` (stereo not given) it is inactive: 71%.
The value for `CCSc1nc2ccccc2c(=O)n1CCOC` was inactive: 105%; that for `CCOC(=O)c1c(C)oc2c1cc(NS(=O)(=O)c1ccc(C)cc1)c1ccccc12` was inactive: 86%; that for `CCC(C)NC(=O)c1ccc2c(c1)nc1n2CCCCC1` (stereo not given) was inactive: 81%.
The figure for `O=C(Nc1cccnc1N1CCOCC1)c1cc2ccccc2oc1=O` is inactive: 100%.
On to `COc1ccc(NC(=O)CSc2nc3c(oc4ccccc43)c(=O)n2-c2ccccc2)cc1OC`, for which the survival was inactive: 89%.
As to `CC(C)(C)OC(=O)N1CCC(c2c(C(=O)NCc3ccccc3)cnn2-c2ccc(F)cc2)CC1`, the survival is inactive: 133%.
The value for `CCC(=O)N1c2ccccc2C(C)(c2ccccc2)CC1(C)C` (stereo not given) was active: -3%; that for `CN1CCN(C(=O)c2ccc3c(c2)N(Cc2ccc(F)cc2)C(=O)c2ccccc2S3=O)CC1` (stereo not given) was inactive: 89%; that for `C=CCNc1nc(N2CCCCC2)nc(N2CCCCC2)n1` was inactive: 109%.
The figure for `O=C(CSc1nc(-c2ccccc2)no1)N1CCN(c2ccccc2)CC1` is inactive: 78%.
In the case of `CCOc1ccccc1NC(=O)c1cc(S(=O)(=O)N2CCOCC2)cn1C`, the survival was inactive: 87%.
The value for `Cc1ccc(NC(=O)c2cc(S(=O)(=O)N3CCCCCC3)ccc2F)cc1F` was inactive: 148%.
